Measured values taken from paper PMC8453981, “Catalytic and structural properties of ATP‐dependent caprolactamase from Pseudomonas jessenii” (Proteins, 2021).

Biological target: the molecule itself
Assay: crystal structure; co-purified CapAB, 5.1 mg/mL; crystal from 0.02 M Na/K phosphate, 0.1 M Bis-Tris propane pH 7.5, 20% PEG3350, 294 K; 4.0 Å, molecular replacement; two CapAB dimers in the asymmetric unit

B1: Caprolactamase subunit β (CapB) from Pseudomonas jessenii GO3 (natural protein, UniProt A0A2W0FH34 1-581, looked up)
chain: MNTVDPITLAVVRGALETAQREMTLTLEKTSRSSVFNLAHDYSNALFDHLPEMILQGQDIPIHLGSLIPAMKCVAGFFGDEIAEGDVIYHNDPAYMGSHILDCCMYKPVFYKGELVFWTVCKGHLTDIGGPVPAGYNPDAKEIYAEGLRIPPVKLWAQGQRREDVINLLLTNMRARAYQEGDLNAQYGACSVGERHLIELLDRYGVDQVRACITELKDMADRHMRALLRDVPDGFYSGTAILEDSGHGLGELSITAQVEIRGDEAHVLIESPPQVPYFINSYAGNSISGVYLGLMMFAQVPPPYNEGLYRCVSVDLGPSGTLCNAQEPAPHVNCTTTPMETLADAVRLALEQAAPERVTASWGHASGINIAGHDPRNNNDEYVTMVLASVISGAGANKAMDGWPACGPLCCFGALMSGDIELLEYSYPVLIHRYSLMTDSGGAGEFRGGSGTRLELEPLKHAMTVVGFGEGRQLPTAGAAGAKNVLLEPKLGRLIHRHVDGEEDHYIQNTLLTAQPGERVINVNPGGGGYGDPLRRPLATVLADVRNGLVSIDGARLEYGVVIDGNGQLDEAATHAHRAAH
notes: untagged; residues 1-580 are in the crystal model; Untagged; Two copies of CapB form the dimeric core of the (αβ)2 tetramer; also called PjCapB; β subunit; source: E. coli C41(DE3), co-expressed with His-tagged CapA from pET20b(+)-CapBAHis; in cell-free extract, then purified with CapA (Ni-NTA; Superdex 200 gel filtration for crystallography)
- stoichiometry N: 2
